The results in this text go back to the supplement of paper PMC10723795.

This assay concerns RPE1. The assay can be described thus: nucleolar normality score relative to DMSO (fraction of DMSO control); RPE1 is a non-cancer human cell line; higher = more normal nucleoli (less nucleolar stress). The conditions noted are these: 24 h.

Where a name gives a salt, the structure may show the parent alone. The list shows a part of the results.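 The calls were made as follows: active = more than 2 SD below the DMSO mean: under 0.85 at 10 µM or 0.885 at 1 µM; inactive = the rest.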 Most values come without repeats; read them as rough. Where a SMILES comes first, the peptide text is derived from it. The star is where a group is joined. Cbz = O=C(OCc1ccccc1)*
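Also: fixed cells immunolabelled for nucleolin and UBF, 40 image fields per well in 384-well plates, per-cell score = nucleolin nucleolar/nucleoplasm intensity ratio divided by the matching UBF ratio.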

Take `CN1CC[C@H](c2c(O)cc(O)c3c(=O)cc(-c4ccccc4Cl)oc23)[C@H](O)C1` [Flavopiridol HCl]: the nucleolar normality score (1 µM) is active: 0.175 and the nucleolar normality score (10 µM) is active: 0.133.
For `Cc1ccc(C(=O)Nc2ccc(CN3CCN(C)CC3)c(C(F)(F)F)c2)cc1C#Cc1cnc2cccnn12` the same measures were inactive: 0.915 and active: 0.779.
For `O=C1Nc2ccc(CN3C(=O)CSC3=O)cc2/C1=C/c1cc(CN2CCOCC2)c[nH]1` the same measures were inactive: 1.01 and inactive: 0.983.
For `CC(C)[C@H]1C(=O)N[C@@H](CCCNC(=N)N)C(=O)NCC(=O)N[C@@H](CC(=O)O)C(=O)N[C@H](Cc2ccccc2)C(=O)N1C` [Cilengitide trifluoroacetate] the same measures were inactive: 1 and active: 0.804.
As to `O=C1CCc2c(Oc3ccc4c(c3)[C@@H]3[C@H](O4)[C@H]3c3nc4cc(C(F)(F)F)ccc4[nH]3)ccnc2N1` [Lifirafenib (BGB-283)], the nucleolar normality score reads like this: (1 µM) inactive: 1.04; (10 µM) inactive: 1.12.
For `O=C(c1cccc(Cl)c1F)N1CCN(Cc2cccc(Nc3nccs3)n2)CC1` the same measures were inactive: 1.06 and inactive: 0.906.
For `CCN(CC)c1ccc(C=NNC(=O)c2ccc(O)cc2)cc1`, the nucleolar normality score by setting is: (1 µM) inactive: 0.977; (10 µM) inactive: 1.
For `NCCOc1cc(C(=O)Nc2cc(OCCN)c3ccccc3n2)nc(C(=O)Nc2cc(OCCN)c3ccccc3n2)c1` [Pyridostatin Trifluoroacetate Salt] the same measures were inactive: 0.927 and inactive: 1.02.
Turning to `CO/N=C(\C(=O)N[C@@H]1C(=O)N2C(C(=O)O)=C(CSc3nc(=O)c(O)nn3C)CS[C@H]12)c1csc(N)n1` [Ceftriaxone Sodium], the nucleolar normality score (1 µM) is inactive: 0.999 and the nucleolar normality score (10 µM) is inactive: 0.968.
Turning to `COc1cc(OC)c2c(=O)[nH]c(-c3cc(C)c(OCCO)c(C)c3)nc2c1` [Apabetalone (RVX-208)], the nucleolar normality score was inactive: 0.991 (1 µM) and inactive: 1.01 (10 µM).
For `COc1cccc(NC(=O)/C=C/c2ccc(Cl)cc2)c1` the same measures were inactive: 0.968 and inactive: 0.976.
For `Cc1nc(NC(=O)N2CCC[C@H]2C(N)=O)sc1-c1csc(C(C)(C)C)n1` the same measures were inactive: 1 and inactive: 0.891.
For `O=C(Nc1c[nH]nc1-c1nc2ccc(CN3CCOCC3)cc2[nH]1)NC1CC1` the same measures were active: 0.851 and active: 0.802.
`Cn1cc(-c2ccc(F)c(C(F)(F)F)c2)nc1C1CCN(c2ncnc3[nH]ncc23)CC1`: the nucleolar normality score by setting is: (1 µM) inactive: 1.05; (10 µM) inactive: 1.06.
Consider `C[C@@H]1CN(C(=O)c2ccc(NC(=O)c3cc(O[C@H](C)c4c(Cl)ccc(F)c4Cl)c(N)nn3)cc2)C[C@H](C)N1` [Ensartinib (X-396)], for which the nucleolar normality score reads like this: (1 µM) inactive: 1.05; (10 µM) inactive: 1.06.
For `CC(C)(C)Cn1c(N)nc2ccc(-c3[nH]c(C(C)(C)C)nc3-c3ccc(F)cc3)nc21` the same measures were inactive: 1.07 and inactive: 1.08.
`COc1ccc(C(=O)CC2(O)C(=O)Nc3c(Cl)ccc(Cl)c32)cc1` (configuration not stated): the nucleolar normality score is inactive: 1.1 (1 µM) and inactive: 1.07 (10 µM).
Consider `CC(=O)c1ccc(S(=O)(=O)NC(=O)NC2CCCCC2)cc1` [Acetohexamide], for which the nucleolar normality score is inactive: 0.997 (1 µM) and inactive: 1.05 (10 µM).
For `Nc1ncn([C@@H]2O[C@H](CO)[C@@H](O)[C@H]2O)c(=O)n1` [Azacitidine] the same measures were inactive: 0.976 and inactive: 1.04.
As to `O=C(Nc1ccc(OC(F)(F)F)cc1)c1sccc1NCc1ccnc2ccccc12`, the nucleolar normality score is inactive: 0.948 (1 µM) and inactive: 0.951 (10 µM).
Regarding `CCCCCCCCCCCCCCCCCCOP(=O)([O-])OC1CC[N+](C)(C)CC1` [Perifosine (KRX-0401)], the nucleolar normality score reads like this: (1 µM) inactive: 1.02; (10 µM) inactive: 1.12.
For `COc1cc2c(Oc3ccc4[nH]c(C)cc4c3F)ccnc2cc1OCC1(N)CC1` [Anlotinib (AL3818) dihydrochloride] the same measures were inactive: 0.964 and inactive: 0.968.
Take `CC(C)(C)c1[nH]cnc1/C=c1\[nH]c(=O)/c(=C/c2ccccc2)[nH]c1=O` [Plinabulin (NPI-2358)]: the nucleolar normality score (1 µM) is inactive: 0.961 and the nucleolar normality score (10 µM) is inactive: 0.971.
For `COC(=O)c1cc(O)c(O)c(O)c1` [Methyl gallate], the nucleolar normality score reads like this: (1 µM) inactive: 1.02; (10 µM) inactive: 0.902.
For `N#Cc1ccc(-c2c(-c3ncn[nH]3)sc(N3CCOCC3)c2C#N)c(F)c1` the same measures were active: 0.877 and inactive: 0.956.
On to `O=C(c1ccc(C(=O)N2CCC(N3CCCC3)CC2)c(Nc2ccccc2)c1)N1CCC(N2CCCC2)CC1`, for which the nucleolar normality score was inactive: 1.04 (1 µM) and inactive: 0.905 (10 µM).
For `N#CCC1(n2cc(-c3ncnc4[nH]ccc34)cn2)CN(C2CCN(C(=O)c3ccnc(C(F)(F)F)c3F)CC2)C1` the same measures were inactive: 0.975 and inactive: 1.01.
Regarding `Cn1ncc(Cl)c1-c1cc(C(=O)N[C@H](CN)Cc2ccc(F)c(F)c2)oc1Cl`, the nucleolar normality score is inactive: 1 (1 µM) and inactive: 1 (10 µM).
For `C[C@H](NC(=O)CCC(F)(F)F)C(=O)N[C@@H]1C(=O)N(CCO)c2ncccc2-c2ccccc21`, the nucleolar normality score is active: 0.839 (1 µM) and inactive: 0.872 (10 µM).
On to `CC(C)(C#N)c1ccc(N2C(=O)OCc3cnc4ccc(-c5cnc6ccccc6c5)cc4c32)cc1`, for which the nucleolar normality score reads like this: (1 µM) inactive: 0.991; (10 µM) inactive: 0.911.
`COC(=O)C1=CO[C@@H](O[C@@H]2O[C@H](CO)[C@@H](O)[C@H](O)[C@H]2O)[C@@H]2[C@@H](C)[C@@H](O)C[C@H]12` [Loganin]: the nucleolar normality score is inactive: 1.06 (1 µM) and inactive: 0.913 (10 µM).
As for `CC(C)C[C@@H](C=O)NC(=O)[C@H](CC(C)C)NC(=O)[C@H](CC(C)C)NC(=O)OCc1ccccc1` (Cbz-Leu-Leu-Leu-aldehyde), the nucleolar normality score by setting is: (1 µM) inactive: 1.05; (10 µM) inactive: 0.896.
As for `COc1ccc(-n2c(C)c([N+](=O)[O-])c3ccc(O)cc32)cc1`, the nucleolar normality score by setting is: (1 µM) inactive: 1.01; (10 µM) inactive: 1.04.
For `CC(C)C[C@H](NC(=O)[C@H](CCc1ccccc1)NC(=O)CN1CCOCC1)C(=O)N[C@@H](Cc1ccccc1)C(=O)N[C@@H](CC(C)C)C(=O)[C@@]1(C)CO1` [Carfilzomib (PR-171)] the same measures were active: 0.79 and active: 0.693.
For `COc1cc(OC)c(C=C2C(=O)Nc3ccccc32)c(OC)c1` the same measures were inactive: 0.98 and inactive: 1.04.
For `O=Nc1c(-c2c(O)[nH]c3cc(Br)ccc23)[nH]c2ccccc12` the same measures were active: 0.882 and inactive: 0.957.
